Test results published in the supplement of paper PMC10126150.
Sequences with one replicate were seen in a single cluster, so their values are uncertain.

System: ATP
Experiment: switch fluorescence ratio, 500 uM ATP over buffer (Cy3 cluster intensity, sum of 5 cycles each) (fold (ratio)); higher = stronger signal-on switching upon ATP binding; sequences stand for … in TCGTCGGCAGCGTCAGATGTGTATAAGAGACAGTTTTTTTTTTTTTTTTTTTTTTTTT…TC
Details: aptamer strand: ATP DNA aptamer (quencher-CACCTGGGGGAGTATTGCGGAGGAAGG + anchor), 100 nM annealed; ATP concentration: 500 uM; one replicate
In short: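 Clusters carrying Cy3-labelled switching strands on a modified Illumina MiSeq flow-cell were annealed to 100 nM quencher-labelled ATP aptamer and imaged in selection buffer. They were imaged again after 15 min with 500 uM ATP at 22 °C, over five buffer/ATP cycles with NaOH stripping and re-annealing in between. For each cluster, the fluorescence ratio is the summed Cy3 intensity of the target cycles divided by that of the buffer cycles, averaged per switch-domain sequence. Clusters outside 100-1000 RFU were left out.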
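Also: ATP exposure 15 min at 22 °C before imaging.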

Sequence	switch fluorescence ratio
ACACTATTCG	1.04
GGCGAAAGTA	1
AAGATATTGT	0.987
TAATGACGGT	0.985
CAGTTAGCTG	1.03
AGATTTCGAT	0.991
TGACAAGTAC	1.63
GAGCCTCAGG	1.08
TCTGTAGGGA	1.75
GGTAACATTG	0.995
GGCTTACCCG	1.31
GAGATACGCG	1.02
GGTATTATGA	1.02
TGCAGGGGAG	0.969
ATTGGCGTCG	1
TGGAGTGGTC	1.06
ATGTACTTTT	1.06
TGACTTTTGA	1
GGTCTGTTAC	1.06
GCCAAAGAGG	1.02
ATTAGCACGA	1.06
CAACCCACTA	1.36
TAGGGGTAAC	1.02
GAGGATTAAG	1.03
CTTCGAATGT	1.02
CGAGATATGC	1.02

Sequence	switch fluorescence ratio
TAAGAAATAC	2.68
TTGACGGTTG	1.03
TGCCACGTCA	0.947
GTCATAGTTT	1.02
TTCCCTCGGG	1.12
CTTATGGCTC	0.999
CTTTTACCCA	1.04
GATGGAAGCC	1.01
GCCGGGCGGC	0.925
AACATTAAGA	1.03
ACTATGATC	1.03
AGTCGGTCTC	1
GGGCCTCACA	0.986
GGCCCAGGCG	2.23
CGGGCATCAT	1.01
CAATTCA	0.963
GTATTATTTG	1.01
ACTTCCATTC	1.16
CCGATTACTA	1.11
GGTATATCCT	1.02
TCCTGTAAGC	1.06
AGCGGGCTAG	1.03
GGACGAGGTA	1.04
CATTAATTCG	0.997
TTGTACCTAT	1.02
GTAATAGATT	0.926

Sequence	switch fluorescence ratio
ATCACGGTGT	1.04
GCGAGTAGTA	1.04
TTATGATAT	1.03
GAACTTTGTA	1.02
TTGAGAGGAA	1.05
GCGGTGTCCA	1.03
AAACTATTTG	0.995
TGGAGTAGAG	1.04
AGTATCCGCG	1.1
GATTTGGTAT	1
AATCATGGGA	1.03
GTGGACAGCA	0.996
AGCCTTAGT	0.989
AGGTGCCATC	0.957
AGATCAGCG	1.03
GGAGAGGCGG	1.03
CCTCCTTCAT	2.93
CCCCCGGGA	1.73
TTAGTTATAA	1.05
CGCTCCGAAA	1.72
CTGAGGTTGG	0.988
AAGAGAATTG	0.955
AAACTCGCCG	0.989
ATGTCGTTGC	1.03
ATAGGCGGGC	1.01
CACCCGATA	1.06

Sequence	switch fluorescence ratio
CATCACGGTT	1.06
TGTTGATTGG	1.38
TGATTTAAG	0.978
CTCCGGGCCC	1.18
ATCAGGTCTG	1.02
AGAAGACAGC	1.01
TCACGTGTGG	1.02
TGACTAGGGT	1.01
GTATTAAAGA	0.974
ACATGAATAT	1.08
TAATCAGGG	0.946
GCGGCTGAAC	1.04
ATTCTGGAG	1.08
ATACTTGAGG	0.993
CATACAGCGT	0.977
TATGCTGAAC	1.06
TAATGGGAG	0.991
GCAGCATCG	1.07
TTCGGACACG	1.04
GGTATGAAGC	0.97
GGCTCTCGTG	0.971
AAAATCGTTC	1.02
TTATTGGGCG	0.958
ATTGGTTTG	0.976
ACTATAGACA	1.05
CAGCGTTTCA	1.05

Sequence	switch fluorescence ratio
ACCGGTAATG	0.984
CGCCCTTACT	1.59
AAGAATGAT	0.926
ATCAGGTAGT	1.03
CCTATGGAAT	1.35
TGGGGGCCGC	1.03
CGCGTATAAG	1.01
ACTGAGTGGA	1.02
ATGACTAGCG	1
GGGAATGGTA	0.962
CGTGAATAAA	0.979
GGGGTCGATT	0.968
TCCATAGGAT	1
CCGCACCTT	2.07
ATAGAATAGC	1.03
CGACCGGGCC	1.04
ACTAGCTCAT	0.975
ATAAGAGTCG	0.967
CTCACTGTCT	1.03
TGGGGCACTC	0.967
AGGGCACGC	0.994
TAAGGAGAAG	1.02
GCCGGAAAAT	0.994
GGGCCCTTGA	1.04
CTGTATGTGG	1.03
TGACTTCAGG	1.01

Sequence	switch fluorescence ratio
ATGGCTAAAT	1.01
CGCAGTTGTC	1.28
GACCTGGCC	1.11
TGCAAACCGG	1.04
GGTCCCGTAT	0.957
CATTCTAAAA	1.01
CAGGGGCGTA	1.03
TGACAAGTTA	1.01
AAGCGACAGC	1.04
GCGTTAGGAT	1.03
CATAGATAAT	1.07
ACACCATGAA	1.02
CAGTGATGTG	0.924
TGAGGGCCAT	1.06
TGACGGTGTT	1.04
TGACTGCGTG	0.945
AATAATTGCC	1.08
ACGGAAGCGA	0.977
GAGCTAAATA	1.09
ACCGTTTCG	0.966
GGAATGATAG	1.02
AAACGGCTTG	0.933
CGCTGCGTGG	1.01
AAATTGTCAC	0.997
TACATTGTAC	1.14
TCTCCAAAA	2.48

Sequence	switch fluorescence ratio
TGGCGAGCAA	2.06
GACTTTCATT	1.07
AGGCGGTAGA	0.99
AAGCTTTTTC	0.997
TTTATCGTGT	0.977
CACCGCCTGT	1.27
CGGTGTCTGT	0.948
CTAGATGCAC	1.07
ATAGGGGAAC	1.03
GACCGTTGT	0.996
CCTTACACTG	1.13
GCTTACTAGG	1.06
ATATATCACT	1.04
TCCTATGTTC	1.08
TCCATACTTT	0.988
CGAATTGAGG	0.982
CACAGGAACC	1.05
TAATCAGCCA	0.965
CGGGCTCCCT	1.03
GAAGGTGTTC	1.04
GGTGGTGCAC	0.978
GAGCAATCTT	2.36
TCGAGGGGT	1.04
AGTGTTGGGA	0.986
GATGCGAGGA	0.917
CCCCTCTAGG	1.24

Sequence	switch fluorescence ratio
GGTAGCCGGC	1.02
ACCTGTCGTT	0.98
AGCTAGGTTT	0.989
CTTCGAGGGG	1
GCGCCGTCCG	0.997
TGGCACGCCC	0.992
ATCCGCCAGT	1.8
GAGCAGTCCC	1.15
TCACATAGGC	0.965
TCTTTTCCGT	1.01
AACCCAGATG	2.55
TCACGTATTG	1.09
AGGTTTAGAA	0.953
GAGAGCCGCT	1.01
AGGCTTTCG	0.962
GGGTTCTACC	0.994
GCATGTGATA	0.988
ATCCGCGCAT	5.75
CTCTTAGGCT	0.959
